Results taken from the supplement of paper PMC8183993.
Several values for one entry are separate records, joined by “and”; a condition that tells them apart may be missing. Equal entries are not always repeated. Structures can show the parent of a compound that is named as a salt. ± gives the standard deviation of the averaged measurements. Whole data set: some 3,100 compounds, median “mean cytoplasmic OPP incorporation (global translation) relative to DMSO” near 100, cut for the lowest 2% near 56. The list shows a part of the results.

These molecules were tested on U2OS (assay: mean cytoplasmic OPP incorporation (global translation) relative to DMSO (% of DMSO); higher = more protein synthesis). Settings: 10 µM; 24 h.
Protocol: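 Primary image-based screen in U2OS cells: compounds at 10 uM for 24 h, then a 1 h o-propargyl-puromycin (OPP) pulse, click labelling, and high-throughput microscopy. Mean cytoplasmic OPP intensity and nuclei count were normalised to DMSO wells within each plate (DMSO = 100) and averaged over triplicate plates.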

Compound	mean cytoplasmic OPP incorporation
CCC[C@H](N[C@@H](C)C(=O)N1[C@H](C(=O)O)C[C@@H]2CCCC[C@@H]21)C(=O)OCC [Perindopril]	99.2
CCC[C@H](N[C@@H](C)C(=O)N1[C@H](C(=O)O)C[C@@H]2CCCC[C@@H]21)C(=O)OCC [Perindopril Erbumine (Aceon)]	105
Nc1ccc(C(=O)NCC(=O)O)cc1 [Aminohippuric acid]	98.1
COc1ccc(NS(=O)(=O)c2ccc(N)cc2)nn1 [Sulfamethoxypyridazine]	101
CC1(C)OC(=O)NC1=O [Dimethadione]	101
N[C@@H](C(=O)O)c1ccc(C(=O)O)c(C(=O)O)c1	99.7
N=C(N)NCC1COC2(CCCCC2)O1 (stereo not given) [Guanadrel sulfate]	97.3
CCN(CC)Cc1ccc2cc(COC(=O)Nc3ccc(C(=O)NO)cc3)ccc2c1 [ITF2357 (Givinostat)]	104
CC(=O)Oc1cccc2c1C(=O)c1c(OC(C)=O)cc(C(=O)O)cc1C2=O [Diacerein]	102
CC(C)(C#N)c1ccc(N2C(=O)OCc3cnc4ccc(-c5cnc6ccccc6c5)cc4c32)cc1	113
NC(C(=O)O)c1cc(O)cc(O)c1 (racemic)	107
COC1=CC(c2cc3ccccc3[nH]2)=N/C1=C\c1[nH]c(C)cc1C [Obatoclax mesylate (GX15-070)]	156
N[C@H]1C(O)O[C@H](CO)[C@@H](O)[C@@H]1O (stereo not given in full) [Glucosamine HCl]	94.4
O=c1oc(Cl)c(Cl)c2ccccc12 [3,4-Dichloroisocoumarin]	104
C=C1C[C@H]2[C@@H]3C=C(C)C4=CC(=O)CC[C@]4(C)[C@H]3CC[C@]2(C)[C@@]1(OC(C)=O)C(C)=O [Melengestrol acetate]	104
CC(C)C[C@@H](C=O)NC(=O)[C@H](CC(C)C)NC(=O)[C@H](CC(C)C)NC(=O)OCc1ccccc1	91.4 and 56.1
O=c1c(O)c(-c2cc(O)c(O)c(O)c2)oc2cc(O)cc(O)c12 [Myricetin (Cannabiscetin)]	101
CCN(CC)CCOc1ccc(Cc2ccccc2)cc1 [DPPE fumarate]	109
Cc1cc(Cn2cnc3c2CC(C(=O)O)N(C(=O)C(c2ccccc2)c2ccccc2)C3)ccc1N(C)C (stereo not given)	101
Cc1ccc(S(=O)(=O)NC(=O)NN2CC3CCCC3C2)cc1 (stereo not given) [Gliclazide]	99.9
O=c1c(O)cccc2cc(O)c(O)c(O)c12 [Purpurogallin]	101
CC(=O)N[C@@H](CC(=O)N[C@@H](CCC(=O)O)C(=O)O)C(=O)O [Spaglumic acid]	102 ± 3.7
c1ccc(C(NCCNC(c2ccccc2)c2ccccc2)c2ccccc2)cc1 [AMN 082 dihydrochloride]	97.5
COc1nc(C)nc(Cl)c1NC1=NCCN1 [Moxonidine]	103
COc1nc(C)nc(Cl)c1NC1=NCCN1 [Moxonidine hydrochloride]	97.9
CNCCN1CCC(OCc2ccccc2)CC1	111
CCCC[C@@H](C=O)NC(=O)[C@H](CC(C)C)NC(=O)OCc1ccccc1 [Calpeptin]	106 ± 7.2

Compound	mean cytoplasmic OPP incorporation
COc1cc2nc(N3CCN(C(=O)c4ccco4)CC3)nc(N)c2cc1OC [Prazosin hydrochloride]	94.1 ± 17
NCCS(=O)(=O)O [Taurine]	98.9
CCn1cc(C(=O)O)c(=O)c2cnc(N3CCNCC3)nc21 [Pipemidic acid]	105
N#CC(C#N)=C(N)/C(C#N)=C/c1ccc(O)cc1	106
Cc1nc2c(c(=O)[nH]1)CSCC2	98.5
CCCCCCCC/C=C\CCCCCCCC(=O)N[C@@H](CO)Cc1ccc(O)cc1	95.9
CCN(CC)CCNC(=O)c1cc(S(C)(=O)=O)ccc1OC [Tiapride hydrochloride]	103
O=C(CCCN1CC=C(n2c(=O)[nH]c3ccccc32)CC1)c1ccc(F)cc1 [Droperidol]	105
Cc1cccc(/C=C/c2ccccc2)n1	99.9
COc1ccc2cc(CCC(C)=O)ccc2c1 [Nabumetone]	84
COc1ccc(-c2oc3c(CC=C(C)C)c(O[C@@H]4O[C@H](CO)[C@@H](O)[C@H](O)[C@H]4O)cc(O)c3c(=O)c2O[C@@H]2O[C@@H](C)[C@H](O)[C@@H](O)[C@H]2O)cc1 [Icariin]	99.6
Cc1cc(C)cc(C(=O)N(C)[C@H](Cc2ccc(-c3ccccc3)cc2)C(=O)N[C@@H](Cc2c[nH]c3ccccc23)C(=O)O)c1	118
C[C@H]1[C@@H](O)O[C@@H]2O[C@@]3(C)CC[C@H]4[C@H](C)CC[C@@H]1[C@@]24OO3 [Dihydroartemisinin (DHA)]	86.7
CCn1cc(C(=O)O)c(=O)c2ccc(C)nc21 [Nalidixic acid sodium salt]	100
C#CCN(C)Cc1ccccc1 [Pargyline hydrochloride]	76.9
CCN(CC)CC#CCOC(=O)C(O)(c1ccccc1)C1CCCCC1 (stereo not given) [Oxybutynin chloride]	108
Cc1ncc([N+](=O)[O-])n1CCO [Metronidazole]	95.6
OC(CCN1CCCCC1)(c1ccccc1)C1CC2C=CC1C2 (stereo not given) [Biperiden HCl]	104
OC(CCN1CCCCC1)(c1ccccc1)C1CC2C=CC1C2 (stereo not given) [Biperiden hydrochloride]	101
O=C(NCCNCC(O)COc1ccc(O)cc1)N1CCOCC1 (stereo not given) [Xamoterol hemifumarate]	106 ± 6.2
CCN(Cc1ccncc1)C(=O)C(CO)c1ccccc1 (stereo not given) [Tropicamide]	101 ± 3.8
CN(C)CCOC1=Cc2ccccc2Sc2ccc(Cl)cc21 [Zotepine]	115
CC(C)N1CCN(c2ccc(OCC3COC(Cn4cncn4)(c4ccc(Cl)cc4Cl)O3)cc2)CC1 (stereo not given) [Terconazole]	109
CN1C2CCCC1CC(NC(=O)c1nn(C)c3ccccc13)C2 (stereo not given) [Granisetron HCl]	106
CN1C2CCCC1CC(NC(=O)c1nn(C)c3ccccc13)C2 (stereo not given) [Granisetron]	94.7
NC[C@H]1O[C@H](O[C@H]2[C@H](O[C@@H]3O[C@H](CO)[C@@H](O)[C@H]3O)[C@@H](O)[C@H](N)C[C@@H]2N)[C@H](N)[C@@H](O)[C@@H]1O [Ribostamycin sulfate salt]	102
Cc1ccc(C(=O)c2cc(O)c(O)c([N+](=O)[O-])c2)cc1 [Tolcapone]	101

Compound	mean cytoplasmic OPP incorporation
O=Nc1c(-c2c(O)[nH]c3ccccc23)[nH]c2ccccc12 [Indirubin-3'-oxime]	91
COc1ccc2[nH]cc(CCNC(C)=O)c2c1 [Melatonin]	103 ± 4.6
C=CC[C@@H]1/C=C(\C)C[C@H](C)C[C@H](OC)[C@H]2O[C@@](O)(C(=O)C(=O)N3CCCC[C@H]3C(=O)O[C@H](/C(C)=C/[C@@H]3CC[C@@H](O)[C@H](OC)C3)[C@H](C)[C@@H](O)CC1=O)[C@H](C)C[C@@H]2OC [FK-506 (Tacrolimus)]	116
Cc1c(C(=O)N(C)C2CCCCC2)sc2nc3ccc(N)cc3n12	108
COc1ccc(C(=O)NCc2cccnc2)cc1C(=O)NCc1cccnc1 [Picotamide monohydrate]	98.8
Cc1cc([N+](=O)[O-])ccc1NS(=O)(=O)c1cc(Cl)ccc1Cl	104
COc1ccc(COc2ccc(Cc3cnc(N)nc3N)cc2OC)cc1	106
C=C[C@]1(C)C[C@@H](OC(=O)CS[C@@H]2C[C@H]3CC[C@@H](C2)N3C)[C@]2(C)[C@H](C)CC[C@]3(CCC(=O)[C@H]32)[C@@H](C)[C@@H]1O [Retapamulin]	118
Oc1ncnc2[nH]ncc12 [Allopurinol]	95.2
Oc1ncnc2[nH]ncc12 [Allopurinol (Zyloprim)]	117
CC(=O)N(O)[C@@H]1c2cc(C#N)ccc2OC(C)(C)[C@H]1O	93.3
COc1ccccc1C(=O)Nc1cc2c(cc1N1CCCC1)n(C)c(=O)n2C	122
O=C(CCc1ccc(O)cc1)c1c(O)cc(O)cc1O[C@@H]1O[C@H](CO)[C@@H](O)[C@H](O)[C@H]1O [Phlorizin (Phloridzin)]	87.9
C[C@]12CCC(=O)C=C1CC[C@@H]1[C@@H]2[C@@H](O)C[C@@]2(C)[C@H]1CC[C@]2(O)C(=O)CO [Hydrocortisone (Cortisol)]	104
C[C@]12CCC(=O)C=C1CC[C@@H]1[C@@H]2[C@@H](O)C[C@@]2(C)[C@H]1CC[C@]2(O)C(=O)CO [Hydrocortisone base]	106
CCCCCCC[N+](CC)(CC)CCCCc1ccc(Cl)cc1 [Clofilium tosylate]	84.3
CCOC(=O)C1=C[C@@H](OC(CC)CC)[C@H](NC(C)=O)[C@@H](N)C1 [Oseltamivir phosphate (Tamiflu)]	102
CNCCCC1c2ccccc2C=Cc2ccccc21 [Protriptyline hydrochloride]	107
C[N+]1(CCCCC[N+]2(C)CCCC2)CCCC1 [Pentolinium bitartrate]	99.8
C=C1C(=O)O[C@@H]2/C=C(\C)CC/C=C(\C)CC[C@@H]12 [Costunolide]	90.4 ± 5.7
O=C(Nc1ccccc1)c1cc([N+](=O)[O-])ccc1Cl	94.7 and 80.7
COc1ccc(CCN(C)CCCC(C#N)(c2ccc(OC)c(OC)c2)C(C)C)cc1OC (stereo not given) [Verapamil hydrochloride]	104
Cc1onc(-c2ccccc2)c1-c1ccc(S(N)(=O)=O)cc1 [Valdecoxib]	102
CCCc1cc(=O)[nH]c(=S)[nH]1 [Propylthiouracil]	92.5
Cc1sc(N)c(C(=O)c2cccc(C(F)(F)F)c2)c1C	107
COc1ccc(OC)c2c(=S)c3ccccc3[nH]c12	104
